About 2,200 (0.71%) of roughly 310,000 compounds showed an effect of 50% or more. Effects have a minus sign here. Some of the results follow.
biological target: human ether-à-go-go-related gene (hERG) potassium channel (human, UniProt Q12809); experiment: primary screen, population patch clamp on CHO cells stably expressing hERG
Sequence (Q12809 whole entry, looked up): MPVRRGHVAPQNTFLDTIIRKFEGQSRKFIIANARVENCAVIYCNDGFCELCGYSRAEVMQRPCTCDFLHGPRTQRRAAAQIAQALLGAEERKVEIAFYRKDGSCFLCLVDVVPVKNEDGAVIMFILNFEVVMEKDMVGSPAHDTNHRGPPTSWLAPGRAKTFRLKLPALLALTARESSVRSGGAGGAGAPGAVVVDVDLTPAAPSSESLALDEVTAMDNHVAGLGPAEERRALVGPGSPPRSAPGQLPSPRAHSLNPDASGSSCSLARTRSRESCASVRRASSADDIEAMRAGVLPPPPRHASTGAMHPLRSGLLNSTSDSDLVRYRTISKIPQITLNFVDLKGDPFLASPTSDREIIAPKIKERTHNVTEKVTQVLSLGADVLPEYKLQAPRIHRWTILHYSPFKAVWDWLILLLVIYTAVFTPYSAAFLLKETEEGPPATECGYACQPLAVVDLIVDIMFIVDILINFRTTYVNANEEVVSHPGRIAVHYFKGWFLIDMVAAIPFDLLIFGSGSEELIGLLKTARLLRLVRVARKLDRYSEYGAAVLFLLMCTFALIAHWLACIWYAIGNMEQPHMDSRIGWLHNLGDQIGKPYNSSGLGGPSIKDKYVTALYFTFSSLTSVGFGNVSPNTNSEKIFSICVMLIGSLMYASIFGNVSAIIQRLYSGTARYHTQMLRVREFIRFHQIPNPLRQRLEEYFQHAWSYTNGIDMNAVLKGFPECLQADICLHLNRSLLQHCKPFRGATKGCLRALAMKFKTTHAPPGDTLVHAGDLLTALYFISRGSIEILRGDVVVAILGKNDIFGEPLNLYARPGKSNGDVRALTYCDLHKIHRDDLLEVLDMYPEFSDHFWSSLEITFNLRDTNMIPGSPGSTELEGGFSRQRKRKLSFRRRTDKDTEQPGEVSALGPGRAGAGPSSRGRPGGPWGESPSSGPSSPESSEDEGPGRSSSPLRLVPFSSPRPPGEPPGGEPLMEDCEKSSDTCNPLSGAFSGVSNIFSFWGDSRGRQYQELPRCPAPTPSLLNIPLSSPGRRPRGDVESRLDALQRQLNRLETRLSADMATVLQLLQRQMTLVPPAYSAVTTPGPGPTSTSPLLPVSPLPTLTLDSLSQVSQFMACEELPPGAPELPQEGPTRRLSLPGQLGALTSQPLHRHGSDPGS

Row | SMILES | hERG current change (%, negative = inhibition) at 1uM [%]
1 | Nc1[nH]c(=O)nc(Nc2ccccc2)c1N=O | 8.79
2 | CCCCN1C(=O)C(O)=C(C(C)=O)C1c1ccc(OC)cc1OC (stereo not drawn) | 2.47
3 | CCC(C)NC(=O)CNS(=O)(=O)c1ccc(C)cc1 (stereo not drawn) | 6.83
4 | O=C(COc1ncnc2cc([N+](=O)[O-])ccc12)NC(=O)NC1CCCCC1 | -9.64
5 | Cc1ccc(NC(=O)c2ccc(S(=O)(=O)NCC3CCCO3)cc2)cc1 (stereo not drawn) | 5.7
6 | O=C(/C=C\Nc1ccc2c(c1)OCO2)c1ccc2c(c1)OCO2 | 19.9
7 | Cc1ccc(N/C(N)=N/c2nc(C)cc(C)n2)cc1 | -24.7
8 | CCNS(=O)(=O)c1cc(Br)ccc1OC | -4.75
9 | COc1ccc(CNC(=O)c2cc3c(=O)n4cccc(C)c4nc3n(CC3CCCO3)c2=N)cc1 (stereo not drawn) | -83.8
10 | CCOc1cc(/C=N/NC(=O)C(=O)N/N=C/c2ccc(O)c(OCC)c2)ccc1O | 21.8
11 | COc1ccc(NC(=O)C2CC(=O)OC2c2ccccc2)cc1 (stereo not drawn) | 5.21
12 | O=C1NC(=O)C(CCc2ccncc2)(Cc2ccc(OCc3ccccc3)cc2)C(=O)N1 | 10.6
13 | Cc1[nH]c2ccccc2c1/C=C/c1nc2ccccc2c(=O)[nH]1 | 9.22
14 | Cc1nn(C)c(=O)n1N(C)c1ncc(C(F)(F)F)cc1Cl | 9.6
15 | COc1cc(OC)cc(C(=O)NCC(=O)N2CCCCC2)c1 | 12.5
16 | NC(=O)C1CCN(c2oc(-c3ccccc3F)nc2S(=O)(=O)c2ccc(Cl)cc2)CC1 | 9.32
17 | Cc1c(N=Nc2c(O)[nH]c(=O)[nH]c2=O)c(=O)n(-c2ccccc2)n1C | 16.5
18 | CS(=O)(=O)N1CCC(Oc2ccccc2C(=O)N2CCC[C@H]2CO)CC1 | 18.3
19 | CCCCN(C)CCN1C(=O)C2C(C(=O)Nc3ccc(C)cc3)C3C=CC2(O3)C1C(=O)NC1CCCCC1 (stereo not drawn) | 15.1
20 | COc1ccc(C(=O)NCCn2cc(SCC(=O)N3CCOCC3)c3ccccc32)cc1 | 9.79
21 | COC(=O)[C@H](CCSC)NC(=O)c1cccnc1SC | 14.5

Row | SMILES | hERG current change (%, negative = inhibition) at 1uM [%]
22 | c1ccc2c(c1)CCc1c-2nc2ccccc2c1N1CCOCC1 | -0.957
23 | C[C@@H]1O[C@@H](O[C@H]2C[C@@H](O)[C@]3(CO)[C@H]4[C@H](O)C[C@]5(C)[C@@H](C6=CC(=O)OC6)CC[C@]5(O)[C@@H]4CC[C@]3(O)C2)[C@H](O)[C@H](O)[C@H]1O | 15.1
24 | CC(C)CCN1CCC(n2nccc2NC(=O)c2ccc3c(c2)OCO3)CC1 | 15.3
25 | CC1CCCCC1NC(=O)CNC(=S)N1CC2CC(C1)c1cccc(=O)n1C2 (stereo not drawn) | 15
26 | COc1ccc(CNC(=O)C2CCCN(Cc3nc(-c4cccc(C)c4)oc3C)C2)cc1 (stereo not drawn) | -19.7
27 | O=C(O)c1cccc(NS(=O)(=O)c2ccc(Cl)c(C(=O)O)c2)c1 | 21
28 | Cc1cc(O)c2c(c1)C(=O)C13C(=C2O)C(=O)[C@H]2[C@@H](O)[C@@H]1[C@H]1[C@H](O)[C@@H]3C(=O)C3=C(O)c4c(O)cc(C)cc4C(=O)C312 (stereo partly drawn) | 14.5
29 | CCN(CCN(C)C)C(=O)C1CCN(S(=O)(=O)c2c(C)noc2/C=C/c2ccccc2F)CC1 | 13.5
30 | CN(Cc1ccccc1N1CCCC1)C(=O)c1cc2cc(Cl)ccc2o1 | 7.6
31 | CCCCC(=O)NS(=O)(=O)c1ccc(N=NN2CCOCC2)cc1 | 16.2
32 | Cc1ccc(-c2nnn(CC(=O)N(CC(=O)NC3CCCC3)c3ccc(F)cc3)n2)o1 | 11.7
33 | COc1cc(CNCc2ccco2)ccc1OCc1ccccc1 | 4.43
34 | COc1ccc(OC)c(NC(=O)CSc2nnc(C3CCCCC3)n2N)c1 | -0.727
35 | O=C(CNC(=O)c1ccccc1F)NCCc1ccc(Cl)cc1Cl | 7.52
36 | Cc1cc(C(=O)CN2C(=O)NC3(CCC(C)CC3)C2=O)c(C)n1C (stereo not drawn) | 4.8
37 | COc1ccc(CN2CCNC(=O)C2CC(=O)NCC2CCOCC2)c(C)c1C (stereo not drawn) | 7.09
38 | O=c1[nH]c2c(Br)cnc([N+](=O)[O-])c2[nH]1 | 4.75
39 | COc1ccccc1NS(=O)(=O)c1ccc(Cl)c(NC(=S)NC(=O)C2CCCC2)c1 | 3.34
40 | CCN(CC)c1ccc(NC(=O)C2CCCN(S(=O)(=O)c3cnc[nH]3)C2)c(C)c1 (stereo not drawn) | 4.3
41 | Cc1ccc(C(C(=O)NC2CCCC2)N(Cc2ccc3c(c2)OCO3)C(=O)c2snc(C(N)=O)c2N)cc1 (stereo not drawn) | 11.7
42 | COc1cc(CCC(=O)NC2(C)CCS(=O)(=O)C2)cc(OC)c1OC (stereo not drawn) | -2

Row | SMILES | hERG current change (%, negative = inhibition) at 1uM [%]
43 | CCOCCCn1c(SCC(=O)Nc2cccc(S(=O)(=O)NC3=NCCCCC3)c2)nc2ccccc2c1=O | -3.2
44 | CC(=O)Nc1ccccc1/C=C/c1ccc2c(C)ccc(O)c2n1 | 12.2
45 | Fc1cnc(N2CCN(c3ccccc3)CC2)nc1N1CCN(c2ccccc2)CC1 | -11.2
46 | O=C1c2ccccc2C2NC(=O)C3(CCCCC3)N12 (stereo not drawn) | 8.37
47 | Cc1ccc(NC(=O)CCC(=O)Nc2ccc(C)cc2)cc1 | 15.4
48 | CCOc1ccc(C(C)C)cc1S(=O)(=O)n1nc(C)cc1C | 12.7
49 | Oc1ccccc1CNc1nc2ccccc2n1CCN1CCCCC1 | 4.76
50 | Cc1ccc(S(=O)(=O)/N=C(\CSC(N)=O)Nc2ccccc2)cc1 | 13.7
51 | O=C(Nc1ccccc1C(F)(F)F)c1c(F)cccc1Cl | 6.5
52 | CCOc1ccc(Nc2nc(N)nc(CSC(=S)N3CCN(c4ccccc4)CC3)n2)cc1 | 12
53 | CCCCCC(=O)N(Cc1ccccc1)c1c(N)n(CCOC)c(=O)[nH]c1=O | 15.2
54 | CCCn1c(SCc2ccc(C(=O)OC)o2)nc2ccccc2c1=O | -0.262
55 | CCc1cc(Br)ccc1NC(=O)C1CCCO1 (stereo not drawn) | -7.42
56 | COc1ccccc1N1C(=NC(=O)CCc2ccccc2)SC2CS(=O)(=O)CC21 (stereo not drawn) | 9.33
57 | O=C(Nc1ccc(S(=O)(=O)Nc2ccccn2)cc1)c1ccc(Cl)cc1Cl | 13.4
58 | Cc1ccc(CS(=O)Cc2ccc(C(=O)N3CCN(c4ccc(F)cc4)CC3)o2)cc1 (stereo not drawn) | -4.85
59 | CC(=NCc1ccccc1)C1=C(O)COC1=O | 7.04
60 | CCCN1CCN(CCCNC(=O)c2cc3c(=O)[nH]c4ccc(C)cc4c3s2)CC1 | -18.8
61 | O=C(NCCCN=C1NS(=O)(=O)c2ccccc21)c1ccccc1Cl | 11
62 | COc1ccc(C/C(C)=N\NC(=O)c2cn(C)c3ccccc23)cc1OC | 15.5
63 | COc1ccccc1NC(=O)Cn1nnc(C(=O)NCc2cccs2)c1N | 5.64

Row | SMILES | hERG current change (%, negative = inhibition) at 1uM [%]
64 | CCn1c(CNC(=O)c2ccccc2F)nnc1SCCOc1ccccc1 | -2.89
65 | O=C(O)c1cc(-c2ccccc2)nn1CC1CC(c2cccnc2)=NO1 (stereo not drawn) | 8.49
66 | Cc1ccc(NC(=O)Nc2cccc3ccccc23)cc1 | 15
67 | COc1ccccc1CNC(=O)COC(=O)CSc1ccc(Cl)cc1 | -1.4
68 | CC(C)COc1ccc(C(=O)Nc2ccc(NC(=O)c3ccco3)cc2)cc1 | 13.1
69 | CCOC(=O)c1c(C2CC2)csc1NC(=O)COC(=O)CCS(=O)(=O)c1ccc(C)cc1 | 10.1
70 | OCCOCCn1c(C2CCCN2c2nc(-c3ccc(F)cc3)cs2)nc2cc(Cl)c(Cl)cc21 (stereo not drawn) | -0.144
71 | O=C1c2ccsc2SCCN1Cc1ccc(Cl)cc1Cl | 7.37
72 | COc1ccc(C(CC(=O)Nc2ccccc2OC)n2cccc2)cc1 (stereo not drawn) | 2.89
73 | Cc1ccc(C(=O)N/N=C\C=C\c2ccccc2[N+](=O)[O-])cn1 | 7.61
74 | C(=C\c1ccccc1)/C=N/Nc1nncc(-c2ccccc2)n1 | 4.92
75 | Cc1nnc(C)n1/N=C/c1ccc(C(C)C)cc1 | 0.0637
76 | Cc1occc1C(=O)N/N=C/c1ccc(Cl)c([N+](=O)[O-])c1 | 3.83
77 | CC(=O)N1CCC(=NNC(=O)CSc2cc(C)c(Br)cc2C)CC1 | 12.3
78 | O=C1/C(=C/c2ccc(O)c([N+](=O)[O-])c2)SC(=S)N1Cc1ccccc1 | 6.84
79 | C=Cn1cc[n+](CC(=O)c2ccc(Cl)c(Cl)c2)c1.[Br-] | 11.8
80 | CNC(=O)CC1C(=O)N(c2ccc(Cl)cc2)C(=S)N1CCc1ccc(OC)c(OC)c1 (stereo not drawn) | 10.1
81 | CCCCCn1c(=O)c(C(=O)Nc2ccccc2N)c(O)c2ccccc21 | 15.3
82 | Cc1cc(C)cc(NC(=O)CSc2ncc(S(=O)(=O)c3ccccc3)c(=O)[nH]2)c1 | 11.1
83 | CCN1CCN(Cc2cc(=O)oc3cc4c(cc23)CCC4)CC1 | -6.07
84 | CC(C)C[C@H](NC(=O)c1[nH]cnc1C(=O)N[C@@H](Cc1ccccc1)C(=O)OC(C)(C)C)C(=O)OCc1ccccc1 | 9.61

— paper PMC4336329 (PLoS ONE, 2015)
